# At least one read-out could not be matched to a standard name with certainty. Starred links: 1 amine or outer side, 2 acyl side, 3 side chain; linkers in the order of their positions; H or OH if unused. Positions of bridges follow the written chain, without caps; N, C: chain ends. Residues, ends and D or L forms follow the SMILES beside them. *: point of attachment. C18 diacid = O=C(O)CCCCCCCCCCCCCCCCC(=O)*; γGlu = O=C(O)[C@H](CCC(=O)[*:2])N[*:1]; AEEA = NCCOCCOCC(=O)O
# Experiment: Thioflavin T (ThT) assay: lagtime and peptide recovery
# Format: physicochemical
# Settings: ThT assay, pH 6.5, after 45h incubation
# From the text: The ThT assay was used to evaluate physical stability of the CNP compounds and their suitability for liquid formulation. Low physical stability of peptides may lead to amyloid fibril formation, which is observed as well-ordered, thread-like macromolecular structures in the sample eventually resulting in gel formation. This has traditionally been tested by visual inspection of the sample. However, that kind of measurement is very subjective and depending on the observer. Therefore, the application of a small molecule indicator probe is much more advantageous. Thioflavin T (ThT) is such a probe and has a distinct fluorescence signature when binding to fibrils [Naiki et al. (1989) Anal. Biochem. 177, 244-249; LeVine (1999) Methods. Enzymol. […], 274-284].
# Procedure: Thioflavin T was added to the supernatant samples from Example 5 (pH 4.0 and 6.5) using an aqueous ThT stock solution to a final concentration of about 1 μM in the samples. Sample aliquots of 150 μL were placed in a 96 well microtiter plate (Packard OptiPlate™-96, white polystyrene). Usually, two to three replicas of each sample were applied to the plate. The plate was sealed and placed in a fluorescence plate reader (Fluoroskan Ascent FL) and incubated at 37° C. with orbital shaking (960 rpm; 1 mm amplitude). Fluorescence measurements were performed every 20 minutes using excitation through a 444 nm filter and measurement of emission through a 485 nm filter. Between each measurement, the plate was shaken and heated as described above and the assay was terminated after 45 hours. Fluorescence measurements for each microtiter plate well were plotted against time and the lag-time (time until an increase in ThT fluorescence was observed) was estimated.
# To assess loss of dissolved peptide following 45h incubation, peptide recovery was measured as the ratio between total peak area after incubation vs. before incubation using the RP-UPLC method described below.
# Measurement of LagTime and Peptide recovery % using RP-UPLC: RP-UPLC was conducted using an Acquity UPLC BEH C18 1.7 μm (2.1×30 mm) Waters column (Eluent A: 0.1% v/v % TFA in water; Eluent B: 0.1% v/v TFA in acetonitrile/water 4:1) with gradient elution (0 min: 95% A; 2 min: 20% A; 2.3 min: 20% A; 2.4 min: 95% A; 9 min: 95% A) in a flow rate of 0.9 mL/min and a column temperature of 30° C. UV-detection at 215 nm was used to assess the total peptide area.
# Samples at pH 4.0 were prepared as described in Example 5 and subjected to the ThT assay as described above.
# Samples at pH 6.5 were prepared as described in Example 5 and subjected to the ThT assay as described above.
row,Structure (SMILES),Peptide Recovery (%) at pH 6.5 [%]
1,CC[C@H](C)[C@@H]1NC(=O)[C@H](CCCNC(=N)N)NC(=O)[C@H](CC(=O)O)NC(=O)[C@H](CC(C)C)NC(=O)[C@@H]2CCCN2C(=O)[C@H](CC(C)C)NC(=O)CNC(=O)[C@H](Cc2ccccc2)NC(=O)[C@@H](NC(=O)CNC(=O)[C@H](CO)NC(=O)[C@H](CO)NC(=O)[C@@H](NC(=O)CNC(=O)[C@@H](NC(=O)[C@H](CCCCN)NC(=O)[C@H](CCC(N)=O)NC(=O)[C@H](C)NC(=O)CNC(=O)[C@H](Cc2c[nH]cn2)NC(=O)[C@H](Cc2ccc(O)cc2)NC(=O)COCCOCCNC(=O)COCCOCCNC(=O)COCCOCCNC(=O)CC[C@H](NC(=O)CCCCCCCCCCCCCCCCC(=O)O)C(=O)O)[C@@H](C)O)C(C)C)CSSC[C@@H](C(=O)O)NC(=O)CNC(=O)[C@H](CC(C)C)NC(=O)CNC(=O)[C@H](CO)NC(=O)[C@H](CC(C)C)NC(=O)[C@H](CO)NC(=O)CNC1=O [compound 1352] ({C18 diacid-γGlu-AEEA-AEEA-AEEA}-YHGAQKTGVSSGCFGLPLDRIGSLSGLGC-OH; disulfide 13-29),0
2,CC[C@H](C)[C@@H]1NC(=O)[C@H](CCCNC(=N)N)NC(=O)[C@H](CC(=O)O)NC(=O)[C@H](CC(C)C)NC(=O)[C@@H]2CCCN2C(=O)[C@H](CC(C)C)NC(=O)CNC(=O)[C@H](Cc2ccccc2)NC(=O)[C@@H](NC(=O)CNC(=O)[C@H](CCCCN)NC(=O)[C@H](CO)NC(=O)[C@H](CC(C)C)NC(=O)CNC(=O)[C@H](CCCCN)NC(=O)[C@H](CCCCN)NC(=O)[C@H](CCC(N)=O)NC(=O)[C@H](C)NC(=O)CNC(=O)[C@H](CCC(=O)O)NC(=O)[C@H](Cc2ccc(O)cc2)NC(=O)COCCOCCNC(=O)COCCOCCNC(=O)COCCOCCNC(=O)COCCOCCNC(=O)CC[C@H](NC(=O)CCCCCCCCCCCCCCCCC(=O)O)C(=O)O)CSSC[C@@H](C(=O)O)NC(=O)CNC(=O)[C@H](CC(C)C)NC(=O)CNC(=O)[C@H](CO)NC(=O)[C@H](CC(C)C)NC(=O)[C@H](CO)NC(=O)CNC1=O [compound 1375] ({C18 diacid-γGlu-AEEA-AEEA-AEEA-AEEA}-YEGAQKKGLSKGCFGLPLDRIGSLSGLGC-OH; disulfide 13-29; C-terminus assumed),88
3,CC[C@H](C)[C@@H]1NC(=O)[C@H](CCCNC(=N)N)NC(=O)[C@H](CC(=O)O)NC(=O)[C@H](CC(C)C)NC(=O)[C@@H]2CCCN2C(=O)[C@H](CC(C)C)NC(=O)CNC(=O)[C@H](Cc2ccccc2)NC(=O)[C@@H](NC(=O)CNC(=O)[C@H](CO)NC(=O)[C@H](CO)NC(=O)[C@H](CC(C)C)NC(=O)CNC(=O)[C@H](CCCCN)NC(=O)[C@H](CCCCN)NC(=O)[C@H](CCC(N)=O)NC(=O)[C@H](C)NC(=O)CNC(=O)[C@H](CCC(=O)O)NC(=O)[C@H](Cc2ccc(O)cc2)NC(=O)CNC(=O)CNC(=O)CNC(=O)COCCOCCNC(=O)COCCOCCNC(=O)CC[C@H](NC(=O)CCCCCCCCCCCCCCCCC(=O)O)C(=O)O)CSSC[C@@H](C(=O)O)NC(=O)CNC(=O)[C@H](CC(C)C)NC(=O)CNC(=O)[C@H](CO)NC(=O)[C@H](CC(C)C)NC(=O)[C@H](CO)NC(=O)CNC1=O [compound 1378] ({C18 diacid-γGlu-AEEA-AEEA}-GGGYEGAQKKGLSSGCFGLPLDRIGSLSGLGC-OH; disulfide 16-32),23
4,CC[C@H](C)[C@@H]1NC(=O)[C@H](CCCNC(=N)N)NC(=O)[C@H](CC(=O)O)NC(=O)[C@H](CC(C)C)NC(=O)[C@@H]2CCCN2C(=O)[C@H](CC(C)C)NC(=O)CNC(=O)[C@H](Cc2ccccc2)NC(=O)[C@@H](NC(=O)CNC(=O)[C@H](CCC(N)=O)NC(=O)[C@H](CO)NC(=O)[C@H](CC(C)C)NC(=O)CNC(=O)[C@H](CCCCN)NC(=O)[C@H](CCCCN)NC(=O)[C@H](CCC(N)=O)NC(=O)[C@H](C)NC(=O)CNC(=O)[C@H](CCCCN)NC(=O)[C@H](Cc2ccc(O)cc2)NC(=O)[C@H](CCCCN)NC(=O)[C@H](Cc2c[nH]cn2)NC(=O)[C@H](C)NC(=O)[C@H](CCC(N)=O)NC(=O)[C@@H]2CCCN2C(=O)[C@H](Cc2c[nH]cn2)NC(=O)[C@H](CCC(=O)O)NC(=O)[C@H](CCC(N)=O)NC(=O)COCCOCCNC(=O)COCCOCCNC(=O)CC[C@H](NC(=O)CC[C@H](NC(=O)CC[C@H](NC(=O)CCCCCCCCCCCCCCCCC(=O)O)C(=O)O)C(=O)O)C(=O)O)CSSC[C@@H](C(=O)O)NC(=O)CNC(=O)[C@H](CC(C)C)NC(=O)CNC(=O)[C@H](CO)NC(=O)[C@H](CC(C)C)NC(=O)[C@H](CO)NC(=O)CNC1=O [compound 1382] ({C18 diacid-γGlu-γGlu-γGlu-AEEA-AEEA}-QEHPQAHKYKGAQKKGLSQGCFGLPLDRIGSLSGLGC-OH; disulfide 21-37),157
5,CC[C@H](C)[C@@H]1NC(=O)[C@H](CCCNC(=N)N)NC(=O)[C@H](CC(=O)O)NC(=O)[C@H](CC(C)C)NC(=O)[C@@H]2CCCN2C(=O)[C@H](CC(C)C)NC(=O)CNC(=O)[C@H](Cc2ccccc2)NC(=O)[C@@H](NC(=O)CNC(=O)[C@H](CO)NC(=O)[C@H](CO)NC(=O)[C@H](CC(C)C)NC(=O)CNC(=O)[C@H](CCCCN)NC(=O)[C@H](CCCCN)NC(=O)[C@H](CCC(N)=O)NC(=O)[C@H](C)NC(=O)CNC(=O)[C@H](CCC(=O)O)NC(=O)[C@H](Cc2ccc(O)cc2)NC(=O)COCCOCCNC(=O)COCCOCCNC(=O)COCCOCCNC(=O)COCCOCCNC(=O)CC[C@H](NC(=O)CCCCCCCCCCCCCCCCC(=O)O)C(=O)O)CSSC[C@@H](C(=O)O)NC(=O)CNC(=O)[C@H](CC(C)C)NC(=O)CNC(=O)[C@H](CO)NC(=O)[C@H](CC(C)C)NC(=O)[C@H](CO)NC(=O)CNC1=O [compound 1392] ({C18 diacid-γGlu-AEEA-AEEA-AEEA-AEEA}-YEGAQKKGLSSGCFGLPLDRIGSLSGLGC-OH; disulfide 13-29),118

# Same assay, conditions: after 45 h ThT incubation vs before, RP-UPLC
row,Structure (SMILES),Peptide Recovery (%) at pH 4.0 [%]
1,CC[C@H](C)[C@@H]1NC(=O)[C@H](CCCNC(=N)N)NC(=O)[C@H](CC(=O)O)NC(=O)[C@H](CC(C)C)NC(=O)[C@@H]2CCCN2C(=O)[C@H](CC(C)C)NC(=O)CNC(=O)[C@H](Cc2ccccc2)NC(=O)[C@@H](NC(=O)CNC(=O)[C@H](CCC(N)=O)NC(=O)[C@H](CO)NC(=O)[C@H](CO)NC(=O)CNC(=O)[C@H](Cc2c[nH]cn2)NC(=O)[C@H](Cc2c[nH]cn2)NC(=O)[C@H](CCC(N)=O)NC(=O)[C@H](C)NC(=O)CNC(=O)[C@H](Cc2c[nH]cn2)NC(=O)[C@H](Cc2ccc(O)cc2)NC(=O)[C@H](CCCCN)NC(=O)[C@H](Cc2c[nH]cn2)NC(=O)[C@H](C)NC(=O)[C@H](CCC(N)=O)NC(=O)[C@@H]2CCCN2C(=O)[C@H](Cc2c[nH]cn2)NC(=O)[C@H](CCC(=O)O)NC(=O)[C@H](CCC(N)=O)NC(=O)COCCOCCNC(=O)COCCOCCNC(=O)CC[C@H](NC(=O)CCCCCCCCCCCCCCCCC(=O)O)C(=O)O)CSSC[C@@H](C(=O)O)NC(=O)CNC(=O)[C@H](CC(C)C)NC(=O)CNC(=O)[C@H](CO)NC(=O)[C@H](CC(C)C)NC(=O)[C@H](CO)NC(=O)CNC1=O [compound 1381] ({C18 diacid-γGlu-AEEA-AEEA}-QEHPQAHKYHGAQHHGSSQGCFGLPLDRIGSLSGLGC-OH; disulfide 21-37),112
2,CC[C@H](C)[C@@H]1NC(=O)[C@H](CCCNC(=N)N)NC(=O)[C@H](CC(=O)O)NC(=O)[C@H](CC(C)C)NC(=O)[C@@H]2CCCN2C(=O)[C@H](CC(C)C)NC(=O)CNC(=O)[C@H](Cc2ccccc2)NC(=O)[C@@H](NC(=O)CNC(=O)[C@H](CO)NC(=O)[C@H](CO)NC(=O)[C@H](CC(C)C)NC(=O)CNC(=O)[C@H](CCCCN)NC(=O)[C@H](CCCCN)NC(=O)[C@H](CCC(N)=O)NC(=O)[C@H](C)NC(=O)CNC(=O)[C@H](CCCCN)NC(=O)[C@H](Cc2ccc(O)cc2)NC(=O)[C@H](CCCCN)NC(=O)[C@H](CCCNC(=N)N)NC(=O)[C@H](C)NC(=O)[C@H](CCC(N)=O)NC(=O)[C@@H]2CCCN2C(=O)[C@H](Cc2c[nH]cn2)NC(=O)[C@H](CCC(=O)O)NC(=O)[C@H](CCC(N)=O)NC(=O)CC[C@H](NC(=O)CC[C@H](NC(=O)CC[C@H](NC(=O)CC[C@H](NC(=O)CCCCCCCCCCCCCCCCC(=O)O)C(=O)O)C(=O)O)C(=O)O)C(=O)O)CSSC[C@@H](C(=O)O)NC(=O)CNC(=O)[C@H](CC(C)C)NC(=O)CNC(=O)[C@H](CO)NC(=O)[C@H](CC(C)C)NC(=O)[C@H](CO)NC(=O)CNC1=O [compound 1389] ({C18 diacid-γGlu-γGlu-γGlu-γGlu}-QEHPQARKYKGAQKKGLSSGCFGLPLDRIGSLSGLGC-OH; disulfide 21-37),117
